# Laboratory results reported in the BET-seq Pho4 binding data (Le et al. 2018).
# The other results are listed elsewhere or left out. The energies were worked out here from pooled read counts, against the library average; single values are noisy.
# Molecular target: T1, Pho4 (S. cerevisiae) (UniProt P07270)
# T1 sequence: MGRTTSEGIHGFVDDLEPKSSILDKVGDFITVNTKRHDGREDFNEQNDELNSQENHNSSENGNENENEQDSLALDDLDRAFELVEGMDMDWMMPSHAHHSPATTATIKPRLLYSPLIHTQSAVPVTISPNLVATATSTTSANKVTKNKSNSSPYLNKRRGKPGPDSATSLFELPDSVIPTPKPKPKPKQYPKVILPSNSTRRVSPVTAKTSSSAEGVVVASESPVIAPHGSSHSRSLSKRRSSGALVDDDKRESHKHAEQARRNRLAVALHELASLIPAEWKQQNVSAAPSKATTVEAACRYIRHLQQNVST
# Assay: relative binding free energy (BET-seq); higher = weaker binding
# Details: reference: library average
row,Sequence,relative binding free energy [kcal/mol]
1,GGGTGCACGTGATTTC,0.12
2,ATTTCCACGTGGTGTA,0.02
3,ATTTACACGTGTGAGA,0.13
4,TGCAGCACGTGGGTAT,-0.27
5,GTACGCACGTGTCGGT,0.02
6,TTGTTCACGTGCCGTG,0.32
7,CGTAACACGTGTGGTT,-0.04
8,GTTCTCACGTGGTGTT,0.14
9,TATATCACGTGTTTGT,0.15
10,TTTATCACGTGATTAG,0.2
11,CGGCTCACGTGATGTT,0.3
12,TTCGACACGTGGTTTT,0.04
13,ATAGGCACGTGAGTGA,0.16
14,TATTTCACGTGGTGGG,0.27
15,CGCTACACGTGTGGTG,0.08
16,GGTGGCACGTGGCCGT,-0.3
17,AGGGGCACGTGAGTAG,0.14
18,GTCTGCACGTGGATAT,0.14
19,GTTTTCACGTGAGAGC,0.43
20,AAGGGCACGTGCGTTG,-0.17
21,AGGTGCACGTGTGAAG,-0.07

row,Sequence,relative binding free energy [kcal/mol]
1,GTTTTCACGTGATTAT,0.44
2,ATGTTCACGTGATGAT,0.32
3,TAGGACACGTGGGACG,-0.11
4,GTAGACACGTGGGGTG,-0.08
5,GTTTGCACGTGGGAAG,0.07
6,GTTATCACGTGGGGAG,0.03
7,GTAAGCACGTGTGTTC,0.12
8,ATTATCACGTGAAGAG,0.38
9,GTGGTCACGTGGATTG,0.24
10,ATGGTCACGTGGACGG,0.09
11,AACGTCACGTGGTGGA,0.03
12,TTAGCCACGTGAGATG,0.23
13,GGTAGCACGTGATGTG,0.31
14,CAGCTCACGTGTTGTG,0.24
15,GTTTGCACGTGTTTGG,0.16
16,TATGACACGTGTTATA,-0.06
17,TGCCGCACGTGGGCGG,-0.24
18,TTTGCCACGTGAATGA,0.25
19,AGGGGCACGTGGGTTC,-0.26
20,TTATGCACGTGTAGGC,-0.03
21,ATGTCCACGTGGGAAT,0.05

row,Sequence,relative binding free energy [kcal/mol]
1,TTAAGCACGTGAGTCT,0.09
2,CGAAGCACGTGTGGGA,-0.07
3,ATATGCACGTGTCGTA,0.03
4,TTTGACACGTGGCTAG,-0.02
5,TGCGTCACGTGTTAGA,0.03
6,TTAGTCACGTGCGCGT,-0.02
7,TATTTCACGTGATGGG,0.38
8,CGTTACACGTGGTATA,-0.02
9,GGGGACACGTGTTGAA,0.03
10,TCGGTCACGTGATTTT,0.33
11,GTATTCACGTGTGCTG,0.25
12,AGACGCACGTGAGGGT,0.01
13,TTGTGCACGTGATAGA,0
14,CGAGGCACGTGATGGC,0.05
15,TTAATCACGTGAGTGT,0.25
16,ACGAGCACGTGTGGGG,-0.1
17,TAGCGCACGTGAGATT,0.54
18,CGGGTCACGTGGCCTG,-0.01
19,AGTGACACGTGAGGGC,0.11
20,AGACGCACGTGTGGGC,-0.05
21,TAAATCACGTGCGTTG,0.13
